# Assay results reported in the supplement of paper PMC8728848.
# The other results are listed elsewhere or left out.
# B1: CPA (Cicer arietinum) (protein)
# chain: MAFSYLNLVLVTLTTLFFLQTTKVKSQKSVSFHITNFTISRPSITLQGTAEFLPNVLLLNDIEHPVFVVGRALYSKPITLWNNKTGKVASFVTSFTFDVQDLKKTVPGHGLVFFLAPSGSEIPFSSDGGNLGVVDGKNAFNRFVGVEFDNFVNSWDPKYSHVGINVNSLISTKTVKWNRVSGELVKVSIVYDSVSTTLTVIVTYKNGQISILSQLVDLKAVLPDTVNIGFSASTTLVSPRQLHNIHSWSFTSTFET
# How the values were obtained:
# Assay in all cases: glycan array binding signal (z-score within array); higher = stronger binding
# Settings in all cases: glycan notation: IUPAC condensed, linker removed
# [1] = target: Fuc(a1-2)[GalNAc(a1-3)]Gal(b1-4)Glc
# Outline: (§1)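 The binding signal is a Z-score computed within each array and averaged over linkers. Arrays of the same protein sequence at different concentrations or buffers were also averaged together. Data originate from 3228 arrays in the Consortium for Functional Glycomics database, kept only where the protein sequence was available.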
# [2] = target: Fuc(a1-2)[GalNAc(a1-3)]Gal(b1-4)GlcNAc
# Outline: as §1
# [3] = target: Fuc(a1-2)[GalNAc(a1-3)]Gal(b1-4)GlcNAc(b1-2)Man
# Outline: as §1
# [4] = target: Fuc(a1-2)[GalNAc(a1-3)]Gal(b1-4)GlcNAc(b1-2)Man(a1-3)[Fuc(a1-2)[GalNAc(a1-3)]Gal(b1-4)GlcNAc(b1-2)Man(a1-6)]Man(b1-4)GlcNAc(b1-4)GlcNAc
# Outline: as §1
# [5] = target: Fuc(a1-2)[GalNAc(a1-3)]Gal(b1-4)GlcNAc(b1-2)Man(a1-3)[Fuc(a1-2)[GalNAc(a1-3)]Gal(b1-4)GlcNAc(b1-2)Man(a1-6)]Man(b1-4)GlcNAc(b1-4)[Fuc(a1-6)]GlcNAc
# Outline: as §1
# [6] = target: Fuc(a1-2)[GalNAc(a1-3)]Gal(b1-4)GlcNAc(b1-3)Gal(b1-4)GlcNAc
# Outline: as §1
# [7] = target: Fuc(a1-2)[GalNAc(a1-3)]Gal(b1-4)GlcNAc(b1-3)Gal(b1-4)GlcNAc(b1-3)Gal(b1-4)GlcNAc
# Outline: as §1
# [8] = target: Fuc(a1-2)[GalNAc(a1-3)]Gal(b1-4)GlcNAc(b1-3)GalNAc
# Outline: as §1
# [9] = target: Fuc(a1-2)[GalNAc(a1-3)]Gal(b1-4)GlcNAc(b1-3)[Fuc(a1-2)[GalNAc(a1-3)]Gal(b1-4)GlcNAc(b1-6)]GalNAc
# Outline: as §1
# [10] = target: Fuc(a1-2)[GalNAc(a1-3)]Gal(b1-4)GlcNAc(b1-6)GalNAc
# Outline: as §1
# [11] = target: Fuc(a1-2)[GalNAc(a1-3)]Gal(b1-4)[Fuc(a1-3)]GlcNAc
# Outline: as §1
# [12] = target: Fuc(a1-2)[GalNAc(a1-3)]Gal(b1-4)[Fuc(a1-3)]GlcNAc(b1-3)GalNAc
# Outline: as §1
# [13] = target: Fuc(a1-2)[GalNAc(a1-4)]Gal(b1-4)GlcNAc
# Outline: as §1
# [14] = target: Fuc(a1-2)[GalNAc(b1-3)]Gal
# Outline: as §1
# Fuc(a1-3)GlcNAc = target: Fuc(a1-3)GlcNAc
# Outline: as §1
# [15] = target: Fuc(a1-3)[Gal(b1-4)]Glc6S
# Outline: as §1
# [16] = target: Fuc(a1-3)[Gal(b1-4)]GlcNAc
# Outline: as §1
# [17] = target: Fuc(a1-3)[Gal(b1-4)]GlcNAc(b1-2)Man
# Outline: as §1
# [18] = target: Fuc(a1-3)[Gal(b1-4)]GlcNAc(b1-2)Man(a1-3)[Fuc(a1-3)[Gal(b1-4)]GlcNAc(b1-2)Man(a1-6)]Man(b1-4)GlcNAc(b1-4)GlcNAc
# Outline: as §1
# [19] = target: Fuc(a1-3)[Gal(b1-4)]GlcNAc(b1-2)Man(a1-3)[Fuc(a1-3)[Gal(b1-4)]GlcNAc(b1-2)Man(a1-6)]Man(b1-4)GlcNAc(b1-4)[Fuc(a1-6)]GlcNAc
# Outline: as §1
# [20] = target: Fuc(a1-3)[Gal(b1-4)]GlcNAc(b1-3)Gal(b1-3)[Fuc(a1-4)]GlcNAc
# Outline: as §1
# [21] = target: Fuc(a1-3)[Gal(b1-4)]GlcNAc(b1-3)Gal(b1-4)[Fuc(a1-3)]GlcNAc
# Outline: as §1
# [22] = target: Fuc(a1-3)[Gal(b1-4)]GlcNAc(b1-3)Gal(b1-4)[Fuc(a1-3)]GlcNAc(b1-3)Gal(b1-4)[Fuc(a1-3)]GlcNAc
# Outline: as §1
# [23] = target: Fuc(a1-3)[Gal(b1-4)]GlcNAc(b1-3)GalNAc
# Outline: as §1
# [24] = target: Fuc(a1-3)[Gal(b1-4)]GlcNAc(b1-6)GalNAc
# Outline: as §1
# [25] = target: Fuc(a1-3)[Gal(b1-4)]GlcNAc(b1-6)[Gal(b1-3)GlcNAc(b1-3)]Gal(b1-4)Glc
# Outline: as §1
# [26] = target: Fuc(a1-3)[Gal(b1-4)]GlcNAc6S
# Outline: as §1
# [27] = target: Fuc(a1-3)[Gal3S(b1-4)]Glc
# Outline: as §1
# [28] = target: Fuc(a1-3)[Gal3S(b1-4)]GlcNAc
# Outline: as §1
# [29] = target: Fuc(a1-3)[Gal3S(b1-4)]GlcNAc6S
# Outline: as §1
# [30] = target: Fuc(a1-3)[GalNAc(b1-4)]GlcNAc
# Outline: as §1
# [31] = target: Fuc(a1-3)[GalNAc(b1-4)]GlcNAc6S
# Outline: as §1
# Fuc(a1-4)GlcNAc = target: Fuc(a1-4)GlcNAc
# Outline: as §1
# Fuc(b1-3)GlcNAc = target: Fuc(b1-3)GlcNAc
# Outline: as §1
# Gal(a1-2)Gal = target: Gal(a1-2)Gal
# Outline: as §1
# Gal(a1-3)Gal = target: Gal(a1-3)Gal
# Outline: as §1
# Gal(a1-3)Gal(b1-3)GlcNAc = target: Gal(a1-3)Gal(b1-3)GlcNAc
# Outline: as §1
binder,measurement,setting,value
B1,glycan array binding signal (z-score),[1],-0.626
same,glycan array binding signal (z-score),[2],-0.386
same,glycan array binding signal (z-score),[3],-0.629
same,glycan array binding signal (z-score),[4],0.016
same,glycan array binding signal (z-score),[5],0.023
same,glycan array binding signal (z-score),[6],-0.299
same,glycan array binding signal (z-score),[7],0.719
same,glycan array binding signal (z-score),[8],-0.027
same,glycan array binding signal (z-score),[9],-0.38
same,glycan array binding signal (z-score),[10],-0.008
same,glycan array binding signal (z-score),[11],0.059
same,glycan array binding signal (z-score),[12],0.587
same,glycan array binding signal (z-score),[13],1.3
same,glycan array binding signal (z-score),[14],-0.026
same,glycan array binding signal (z-score),Fuc(a1-3)GlcNAc,-0.573
same,glycan array binding signal (z-score),[15],0.73
same,glycan array binding signal (z-score),[16],-0.407
same,glycan array binding signal (z-score),[17],-0.078
same,glycan array binding signal (z-score),[18],-0.405
same,glycan array binding signal (z-score),[19],0.593
same,glycan array binding signal (z-score),[20],-0.467
same,glycan array binding signal (z-score),[21],-0.535
same,glycan array binding signal (z-score),[22],-0.67
same,glycan array binding signal (z-score),[23],-0.02
same,glycan array binding signal (z-score),[24],0.181
same,glycan array binding signal (z-score),[25],-0.454
same,glycan array binding signal (z-score),[26],0.267
same,glycan array binding signal (z-score),[27],0.28
same,glycan array binding signal (z-score),[28],0.129
same,glycan array binding signal (z-score),[29],0.641
same,glycan array binding signal (z-score),[30],0.399
same,glycan array binding signal (z-score),[31],-0.635
same,glycan array binding signal (z-score),Fuc(a1-4)GlcNAc,-0.386
same,glycan array binding signal (z-score),Fuc(b1-3)GlcNAc,-0.329
same,glycan array binding signal (z-score),Gal(a1-2)Gal,-0.045
same,glycan array binding signal (z-score),Gal(a1-3)Gal,-0.652
same,glycan array binding signal (z-score),Gal(a1-3)Gal(b1-3)GlcNAc,0.134
